{
  "source": "PubChem BioAssay (NCATS)",
  "note": "Inconclusive means that the source gave no clear call. Such entries were picked first, then a sample of the others. Potencies of inconclusive entries are doubtful fits and often do not repeat. Active and inactive are the calls of the source. The call rests on the fitted dose curve; in most records, active means well fitted cell-killing curve with a large enough effect; inconclusive means small, poorly fitted or top-dose-only effect, or effect the other way; inactive means flat fitted curve, though single readings scatter. Potency means the concentration at half of the fitted maximal effect; tags describe the fitted curve by direction and shape.",
  "data": [
    {"test_system": "SKOV3", "test": "Primary qHTS to identify gynecologic anti-cancer compounds using libraries of approved drugs and bioactive compounds (AID 1345084); further: nearly all actives have a fitted effect of over 55% in size", "conditions": "Gynecologic cancer cell panel viability, ATPlite luminescence, 48 h; series mostly up to 57.5 µM", "summary_of_the_method": "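In this quantitative HTS, cell killing is estimated from loss of ATP-dependent luciferase light. Cells see five compound concentrations over a 48 h exposure.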", "values": [
      {"smiles": "C=C(C)C(=O)O[C@H]1[C@@H]2[C@H](C)C(=O)O[C@@H]2C[C@@H](C)[C@@H]2C=CC(=O)[C@]21C", "Potency": "inconclusive: 2.82 µM [cytotoxic, full curve, poor fit]"},
      {"smiles": "C[C@H]1C(=O)O[C@@H]2CCN3CC=C(COC(=O)[C@](C)(O)[C@]1(C)O)[C@H]23", "Potency": "inconclusive: 31.6 µM [cytotoxic, single point]"},
      {"smiles": "COC(=O)C1(C)CCC(O)C2(C)c3cc(O)c(C(C)C)cc3C(O)C(OC(C)=O)C12", "note": "(configuration not stated)", "Potency": "inconclusive: 1.26 µM [rising, partial curve, poor fit]"},
      {"smiles": "COC[C@H]1OC(=O)c2coc3c2[C@@]1(C)C1=C(C3=O)C2CCC(=O)[C@@]2(C)C[C@H]1OC(C)=O", "note": "(some centres not stated)", "Potency": "inconclusive: 0.501 µM [rising, partial curve, poor fit]"},
      {"smiles": "CC(=O)OC[C@]12[C@H](OC(C)=O)C(=O)[C@@H]3[C@@H](O)[C@@]14O[C@@]3(C)COC(=O)c1cccnc1[C@@H](C)[C@H](C)C(=O)O[C@@H]([C@H](OC(C)=O)[C@@H]2OC(C)=O)[C@]4(C)O", "Potency": "inactive"},
      {"smiles": "Nc1ccccc1C(=O)O", "Potency": "inconclusive: 39.8 µM [rising, single point]"},
      {"smiles": "Cc1ccc(-n2nccn2)c(C(=O)N2CCN(c3nc4cc(Cl)ccc4o3)CCC2C)c1", "note": "(configuration not stated)", "Potency": "inconclusive: 39.8 µM [cytotoxic, partial curve, poor fit]"},
      {"smiles": "C[C@H]1O[C@@H](O[C@H]2CC[C@]3(C=O)C4CC[C@]5(C)[C@@H](C6=CC(=O)OC6)CC[C@]5(O)[C@@H]4CC[C@]3(O)C2)C[C@@H](O)[C@@H]1O", "note": "(some centres not stated)", "Potency": "active: 0.112 µM"},
      {"smiles": "C=CC(C)(C)C12C=C(O)C(=O)N3/C(=C\\c4cnc[nH]4)C(=O)NC31N(OC)c1ccccc12", "note": "(configuration not stated)", "Potency": "inconclusive: 20 µM [cytotoxic, single point]"},
      {"smiles": "C=CCOC(Cn1ccnc1)c1ccc(Cl)cc1Cl", "note": "(configuration not stated)", "Potency": "inconclusive: 3.16 µM [rising, single point]"},
      {"smiles": "CCN(CC)Cc1nccn1-c1ccc([N+](=O)[O-])cc1C(=O)c1ccccc1Cl", "Potency": "inactive"},
      {"smiles": "Clc1ccc(C(OCCN2CCCCC2)c2ccccc2)cc1", "note": "(configuration not stated)", "Potency": "inconclusive: 39.8 µM [cytotoxic, partial curve, poor fit]"},
      {"smiles": "Oc1ccc2c(c1)C13CCCC[C@H]1[C@@H](C2)N(CC1CCC1)CC3", "Potency": "inconclusive: 20 µM [cytotoxic, single point]"},
      {"smiles": "COC1C=CC23c4cc5c(cc4COC2(O)CN(C)C3C1)OCO5", "note": "(configuration not stated)", "Potency": "inconclusive: 0.282 µM [rising, partial curve, poor fit]"},
      {"smiles": "C[C@@H]1C[C@@H]([C@H](O)CC2CC(=O)NC(=O)C2)C(=O)[C@@H](C)C1", "Potency": "active: 2.82 µM"},
      {"smiles": "C/C=C(\\C)C(=O)O[C@@H]1[C@@H](C)[C@]2(O)C3C=C(C)C(=O)[C@@]3(O)CC(CO)=C[C@H]2C2C(C)(C)[C@@]21OC(=O)C(C)CC", "note": "(some centres not stated)", "Potency": "inactive"},
      {"smiles": "c1ccc(C2CC2)c(OCC2=NCCN2)c1", "Potency": "inactive"},
      {"smiles": "C[C@H]1O[C@@H](O[C@H]2CC[C@]3(CO)C4CC[C@]5(C)[C@@H](C6=CC(=O)OC6)CC[C@]5(O)[C@@H]4CC[C@H]3C2)[C@H](O)[C@H](O)[C@@H]1O[C@@H]1O[C@H](CO)[C@@H](O)[C@H](O)[C@H]1O", "note": "(some centres not stated)", "Potency": "active: 2.82 µM"},
      {"smiles": "CC[C@H]1C[C@H]2[C@@H]3CCC4=CC(=O)CC[C@@H]4[C@H]3CC[C@]2(C)[C@H]1O", "Potency": "inconclusive: 28.2 µM [cytotoxic, single point]"},
      {"smiles": "COc1cc(C)[nH]c(=O)c1CNC(=O)c1c(C)n([C@H](C)C2CCOCC2)c2ccccc12", "Potency": "inconclusive: 39.8 µM [rising, single point]"},
      {"smiles": "Clc1ccc(CCC(Cn2ccnc2)Sc2c(Cl)cccc2Cl)cc1", "note": "(configuration not stated)", "Potency": "inconclusive: 25.1 µM [cytotoxic, single point]"},
      {"smiles": "CO[C@@H]1[C@H](O)[C@@H](O[C@@H]2C[C@H]3CC[C@@H]4C(CC[C@]5(C)[C@@H](C6=CC(=O)OC6)CC[C@]45O)[C@@]3(C)[C@H](O)C2)O[C@H](C)[C@@H]1O[C@@H]1O[C@H](CO)[C@@H](O)[C@H](O)[C@H]1O", "note": "(some centres not stated)", "Potency": "active: 0.562 µM"},
      {"smiles": "CN1[C@@H]2CC[C@H]1CC(OC(=O)c1cc(Cl)cc(Cl)c1)C2", "note": "(some centres not stated)", "Potency": "inactive"},
      {"smiles": "CCN(CCO)CCn1c(Cc2ccccc2)nc2c1c(=O)n(C)c(=O)n2C", "Potency": "inconclusive: 0.224 µM [cytotoxic, full curve, poor fit]"},
      {"smiles": "C#CCOC(C(=O)OCCN(C)C)(c1ccccc1)c1ccccc1", "Potency": "inconclusive: 8.91 µM [rising, single point]"},
      {"smiles": "COc1ccc(C(=O)c2c(C)n(CCN3CCOCC3)c3ccccc23)cc1", "Potency": "inconclusive: 39.8 µM [cytotoxic, single point]"},
      {"smiles": "CCc1nn(C)c(C(=O)NCc2ccc(Oc3ccc(C)cc3)cc2)c1Cl", "Potency": "inconclusive: 1.78 µM"},
      {"smiles": "CC(N)Cc1c[nH]c2ccccc12", "note": "(configuration not stated)", "Potency": "inconclusive: 14.1 µM [rising, partial curve, poor fit]"},
      {"smiles": "CC[C@@H]1/C=C/C=C/C[C@H](C)C(O)[C@](C)(O)C(=O)[C@H](C)C(O)[C@H](C)C(=O)[C@H](C)[C@@H](O)[C@H](C)/C=C/C(=O)O[C@H]2[C@@H](C)[C@@H](CC1)O[C@]1(O[C@H](C[C@H](C)O)[C@H](C)CC1=O)[C@@H]2C", "note": "(some centres not stated)", "Potency": "inconclusive: 0.224 µM [cytotoxic, partial curve, poor fit]"},
      {"smiles": "CCCN(CCC)CCc1c[nH]c2ccccc12", "Potency": "inconclusive: 31.6 µM [cytotoxic, single point]"},
      {"smiles": "COC1CC(O[C@H]2CC[C@]3(C=O)C4CC[C@]5(C)[C@@H](C6=CC(=O)OC6)CC[C@]5(O)[C@@H]4CC[C@]3(O)C2)OC(C)C1O[C@@H]1O[C@H](CO)[C@@H](O)[C@H](O)[C@H]1O", "note": "(some centres not stated)", "Potency": "active: 0.447 µM"},
      {"smiles": "CC#C[C@]1(O)CC[C@H]2[C@@H]3C[C@H](C)C4=CC(=O)CC[C@]4(C)[C@H]3CC[C@@]21C", "Potency": "inconclusive: 22.4 µM [cytotoxic, single point]"},
      {"smiles": "C=CCC1=C(C)C(OC(=O)C2C(C=C(C)C)C2(C)C)CC1=O", "note": "(configuration not stated)", "Potency": "inconclusive: 31.6 µM [cytotoxic, single point]"},
      {"smiles": "OC1(c2ccc(Cl)cc2)c2ccccc2C2=NCCN21", "note": "(configuration not stated)", "Potency": "inactive"},
      {"smiles": "OCCCBr", "Potency": "inconclusive: 14.1 µM [rising, single point]"},
      {"smiles": "COP(=S)(OC)Oc1ccc(SC)c(C)c1", "Potency": "inactive"},
      {"smiles": "CC(=O)OC[C@]12C[C@H](OC(=O)CC(C)C)C(C)=C[C@H]1O[C@@H]1[C@H](O)[C@@H](OC(C)=O)[C@@]2(C)[C@@]12CO2", "Potency": "inconclusive: 0.316 µM [cytotoxic, full curve, poor fit]"}
    ]}
  ]
}
